Test results from PubChem BioAssay AID488969 (Vanderbilt High Throughput Screening Facility, 2010).
Over roughly 110,000 compounds, “z-score” has its median near -0.1; the highest 2% begin near 2. The list shows a part of the results.

What follows are compounds tested against Metabotropic glutamate receptor 8 (Rattus norvegicus) (UniProt P70579) (assay: rat mGluR8 modulators via GIRK flux, primary screen, cell-based, thallium flux, HTS (AID 488969)). Conditions: HEK293 rat mGluR8, GIRK (G protein-gated inwardly rectifying potassium channel) thallium flux, FluoZin2; at 10 µM; stronger effect = higher value; submaximal glutamate (EC20) added with thallium.
UniProt P70579, sequence (P70579 whole entry, looked up): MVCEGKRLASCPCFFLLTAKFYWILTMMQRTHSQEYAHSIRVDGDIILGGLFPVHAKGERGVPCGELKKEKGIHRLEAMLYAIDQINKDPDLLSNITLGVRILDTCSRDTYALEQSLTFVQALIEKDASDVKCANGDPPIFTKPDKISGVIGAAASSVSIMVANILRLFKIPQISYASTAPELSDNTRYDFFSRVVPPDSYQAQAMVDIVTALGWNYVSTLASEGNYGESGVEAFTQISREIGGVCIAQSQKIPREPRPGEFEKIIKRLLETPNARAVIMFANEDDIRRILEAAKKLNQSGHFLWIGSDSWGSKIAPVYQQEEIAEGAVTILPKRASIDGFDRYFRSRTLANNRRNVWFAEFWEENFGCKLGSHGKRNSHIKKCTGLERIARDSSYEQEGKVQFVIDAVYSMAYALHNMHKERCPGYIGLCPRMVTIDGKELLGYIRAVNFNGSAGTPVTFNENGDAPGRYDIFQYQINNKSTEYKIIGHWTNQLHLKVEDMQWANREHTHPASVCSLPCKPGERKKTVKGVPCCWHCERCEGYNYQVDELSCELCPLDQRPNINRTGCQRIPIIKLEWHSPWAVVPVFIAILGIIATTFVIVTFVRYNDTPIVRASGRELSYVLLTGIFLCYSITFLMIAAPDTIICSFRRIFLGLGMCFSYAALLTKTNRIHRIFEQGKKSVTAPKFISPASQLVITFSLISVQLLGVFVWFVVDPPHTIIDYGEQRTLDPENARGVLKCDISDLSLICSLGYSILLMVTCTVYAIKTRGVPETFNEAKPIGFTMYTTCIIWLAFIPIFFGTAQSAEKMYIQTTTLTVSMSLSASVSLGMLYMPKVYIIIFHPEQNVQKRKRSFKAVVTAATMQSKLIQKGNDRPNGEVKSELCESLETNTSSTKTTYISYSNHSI

| SMILES | z-score |
| --- | --- |
| Cc1ccc(NC(=O)COc2ncnc3c(Cl)cc(Cl)cc23)cc1[N+](=O)[O-] | 0.201 |
| O=C(c1ccc(Cl)cc1)c1coc2ccc(O)cc12 | -0.122 |
| CCOC(=O)C1=C(C)Nc2ncnn2C1c1cccnc1 (stereo not given) | 0.582 |
| Cc1cccc(N2CCN(C(=O)COc3ccc4c(c3)CCC4)CC2)c1C | -0.161 |
| CCn1c(=O)cc(SCC(=O)Nc2cccc(SC)c2)c2ccccc21 | -0.136 |
| COc1cc(OC)cc(C(=O)N(CCCN2C(=O)c3cccc4cccc(c34)C2=O)c2cccc(OC)c2)c1 | -0.716 |
| Cc1noc(C)c1S(=O)(=O)Nc1ccc(C(=O)NC2CCCCC2)cc1 | -0.119 |
| C=CCn1c(SCC(N)=O)nc(C)cc1=O | -0.11 |
| CCOC(=O)CSc1nc2ccc(C)cc2[nH]1 | 0.0515 |
| CN(c1ccc(C(=O)NCCc2ccccc2)cc1)S(C)(=O)=O | -0.314 |
| Cc1ccc(S(=O)(=O)N/N=C/c2c(F)cccc2Cl)cc1 | -0.033 |
| Cc1ccc(C(C2=C(O)CC(C)(C)CC2=O)C2C(=O)CC(C)(C)CC2=O)o1 (stereo not given) | -0.185 |
| O=S(=O)(c1ccccc1)c1cnn(-c2ccccc2)c1-c1ccc(Cl)cc1 | 0.166 |
| COCCSc1ccccc1C(=O)NCC1CCCO1 (stereo not given) | 0.715 |
| CCOc1ccc(OCC)c(NC(=O)CCCN2C(=O)c3cccnc3C2=O)c1 | 0.224 |
| CC(C)CCn1c(Cl)nc2c1c(=O)n(C)c(=O)n2C | 2.04 |
| O=[N+]([O-])c1ccc2sc(SCc3nc4ccccn4c3Br)nc2c1 | -0.0596 |
| S=C(c1ccc2c(c1)OCO2)N1CCCCC1 | 0.65 |
| O=C(OCn1nnc2ccccc2c1=O)c1ccc2c(=O)n3c(nc2c1)CCC3 | 0.159 |
| COc1ccc(C(C(O)C(=O)c2c[nH]c3ccccc23)N2CCN(c3ccccc3)CC2)cc1 (stereo not given) | -0.282 |
| O=C(CNC(=S)NC(=O)c1ccccc1)c1ccccc1 | 0.079 |
| Cn1c2c(c(=O)n(C)c1=O)C(NS(=O)(=O)c1ccccc1)(C(F)(F)F)C(=O)N2 (stereo not given) | -0.132 |

| SMILES | z-score |
| --- | --- |
| O=C(c1ccccc1CCc1ccccc1)N1CCN(c2ccccn2)CC1 | 2.38 |
| CNC(=O)COC(=O)/C=C/c1c(C)nn(-c2ccccc2)c1C | -0.285 |
| CCCc1cc(=O)[nH]c(SCc2cc(Cl)ccc2OC(F)F)n1 | 0.377 |
| COc1ccccc1N1CCN(CC(O)COc2ccc3c(c2)CCC3)CC1 (stereo not given) | -0.492 |
| CC(c1ccccc1)n1cc(C(=O)NCCCn2ccnc2)nn1 (stereo not given) | -0.121 |
| S=c1[nH]nc(-c2ccccn2)n1/N=C/c1cccs1 | -0.126 |
| CCOc1ccc(OCc2cccc(C(=O)N3CCOCC3)c2)cc1 | -0.775 |
| Cc1ccc(S(=O)(=O)c2c(C)cc(C)nc2Oc2cccc(C)c2C)cc1 | -0.128 |
| CCNc1nc(OC)nc(Oc2ccc(=O)n(-c3ccccc3)n2)n1 | -0.172 |
| Cc1ccc(CN(CC(=O)N/N=C/c2ccco2)S(=O)(=O)c2ccc(C)cc2)cc1 | 0.156 |
| CCn1c(SCC(=O)Nc2ccccc2F)nc2c(c1=O)SC(C)C2 (stereo not given) | -1.87 |
| CC1=NN(/C(=N\c2nnc(C)s2)Nc2ccccc2)[C@H](c2ccc(C)cc2)S1 | -0.444 |
| CCOc1ccc(NC(=O)C2CC(C)=C(C)CC2C(=O)O)cc1 (stereo not given) | -0.29 |
| O=C(Nc1ccc(Cl)cn1)c1ccc(-c2ccc(Cl)c(Cl)c2)o1 | -0.219 |
| COC(=O)c1cn(NC(=O)c2ccc(OC)c(OC)c2)c(=O)c2ccccc12 | 0.137 |
| COc1ccccc1NC(=O)c1sc2ncn(Cc3ccccc3C)c(=O)c2c1C | -0.027 |
| CCC1OC23CCCCC2C(C#N)(C(=N)O3)C1(C#N)C#N (stereo not given) | 0.141 |
| CCCN1Cc2cccc(C(=O)N3CCN(c4ccccc4)CC3)c2C1=O | -0.225 |
| O=C(COc1ccc(S(=O)(=O)NC2CCCC2)cc1)N1CCCCCC1 | -0.036 |
| O=C(CN(C1CCCCC1)S(=O)(=O)c1ccccc1)NCc1ccco1 | -0.257 |
| COc1cccc(C(=O)Nc2nnc(-c3cccs3)o2)c1 | 0.124 |
| COC(=O)/C(=C/c1cn(C)c2ccccc12)[N+](=O)[O-] | 0.0204 |

| SMILES | z-score |
| --- | --- |
| COc1ccc2o/c(=N/NC(=S)Nc3ccccc3)c(C(N)=O)cc2c1 | -0.552 |
| Cc1ccc(S(=O)(=O)CCSc2nc(C)cc(C)c2C#N)cc1 | -0.737 |
| CC1(NC(=O)COc2ccccc2-c2ccccc2)CCS(=O)(=O)C1 (stereo not given) | -0.149 |
| CCOC(=O)CN1C(=O)S/C(=C/C=C/c2ccc(N(C)C)cc2)C1=O | -0.189 |
| CCCCOc1ccc(C(=O)N/C(=C\c2cccc([N+](=O)[O-])c2)C(=O)OCCC)cc1 | -0.146 |
| Cc1cccc(C(=O)NCCN(C)C)c1 | -0.0922 |
| CCOC(=O)C1CN(S(=O)(=O)c2ccccc2)c2cc(S(=O)(=O)CC)ccc2O1 (stereo not given) | -0.661 |
| COc1cc(CNCCO)cc(Br)c1OCc1ccccc1Cl | 1.32 |
| CSc1cc(C)n(-c2ccccc2)c(=S)c1C(C)=O | -0.0675 |
| O=C(NCCNS(=O)(=O)c1ccccc1)N1CCOCC1 | 0.663 |
| Cc1cc(/C=N/Nc2ccc([N+](=O)[O-])cn2)c(C)n1-c1ccccc1 | 1.04 |
| COc1ccccc1N1CCN(C(=O)c2oc3cc(C)cc(C)c3c2C)CC1 | 0.208 |
| CC(C)(C)n1nc(-c2ccc(F)cc2)c2c(N)ncnc21 | -0.235 |
| CCC(=O)N=c1sc2cc([N+](=O)[O-])ccc2n1CCOC | -0.0152 |
| Cc1cc(C)n(-c2nc3ccccc3nc2N2CCN(C(=O)c3ccccc3)CC2)n1 | -0.275 |
| CSc1nc2sc3c(c2c(=O)n1C1CCCCC1)CCN(C)C3 | 0.112 |
| CCOC(=O)c1c(C)[nH]c(C(=O)COC(=O)CNC(=O)c2ccc(Cl)cc2Cl)c1C | -0.202 |
| COc1cccc(C(=O)CSc2nnnn2C)c1 | -0.273 |
| Nc1nc(SCc2ccc(Cl)cc2Cl)nc2nc3c(cc12)CCCC3 | -0.129 |
| O=C(NNC(=O)c1ccccc1-n1cccc1)c1ccccc1 | -0.124 |
| Cc1cccc(N2C(S)=C(C#N)C(=O)NC2c2cccs2)c1 (stereo not given) | -1.01 |
| Cc1cccc(C(=O)N/N=C/c2ccncc2)c1 | 0.199 |

| SMILES | z-score |
| --- | --- |
| C=C(C)CN(CC)c1nc(N)c2c(N)nc3c(c2c1C#N)CC(=O)N3C12CC3CC(CC(C3)C1)C2 | 0.632 |
| COC(=O)c1cn(-c2ccccc2)nc1-c1ccccc1 | -0.105 |
| Cc1cc(NC(=O)COC(=O)c2cccc(OCc3ccccc3)c2)no1 | 0.388 |
| CCOc1ccccc1NC(=O)CC1Nc2ccccc2NC1=O (stereo not given) | -0.513 |
| Cn1cc(SCC(=O)NCC2CCCO2)c2ccccc21 (stereo not given) | -0.131 |
| COc1ccc(OC)c(NC(=O)CSc2nnc(C3CCCCC3)n2-c2ccccc2)c1 | -0.765 |
| Cc1cc(C)n(/N=C/c2c[nH]c3ccccc23)c(=O)c1 | -0.182 |
| O=c1[nH]c(Nc2ccccc2)cc2ccccc12 | -0.194 |
| CCOC(=O)C1=C(O)/C(=C/c2cc(OC)c(OC)c(OC)c2)N=C1C | 0.29 |
| Cc1cc(C)n(C(=O)CNC(=O)c2ccc3c(c2)OCCO3)n1 | -0.237 |
| Cc1ccc(Nc2nc(C(=O)NCc3ccco3)cs2)cc1 | -0.436 |
| CCN(c1ccc(NC(=O)COC(=O)c2ccc(S(=O)(=O)N3CCCC3)cc2)cc1)C(C)C | -0.381 |
| COC(=O)CN1C(=O)C2(C(C#N)=C(N)Oc3ccccc32)C2=C1CC(C)(C)CC2=O (stereo not given) | -0.271 |
| Cn1cnnc1SCc1ccc(C#N)cc1Cl | 0.32 |
| COCCNC(=S)N(Cc1cccnc1)Cc1ccc(OC)c(OC)c1 | -0.0571 |
| CCCCC(CC)Cn1c2nc3ccccc3nc2c2c(=N)oc(C)nc21 (stereo not given) | -0.0501 |
| CC1=NN(c2cccc(C(=O)O)c2)C(=O)/C1=C\C=C\c1ccco1 | -0.885 |
| CCOC(=O)C1=C(C)NC(=S)NC1c1ccc(-c2ccc(Cl)cc2)o1 (stereo not given) | 0.0328 |
| O=C(NC1CCCC1)c1ccc(CS(=O)(=O)c2ccc(Br)cc2)o1 | -0.0628 |
| O=C(O)C1C2C=CC(C3CC23)C1C(=O)O (stereo not given) | 0.289 |
| O=C(NCc1ccccc1Cl)c1cccc(C(F)(F)F)c1 | 0.146 |
| COc1c(F)c(F)c(C(=O)Nc2ccc(NC(=O)c3ccco3)cc2)c(F)c1F | 0.273 |

| SMILES | z-score |
| --- | --- |
| CCOC(=O)/C(=C\c1c[nH]c2ccccc12)NC(C)=O | -0.156 |
| Cc1ccc(C(c2sc3ncnn3c2O)N2CCCCC2)cc1 (stereo not given) | -0.0709 |
| CCOC(=O)N1CCN(CCC(=O)Nc2cccc(Br)c2)CC1 | -0.16 |
| Nc1cc(C(=O)N2CCCC2)cc(C(=O)N2CCCC2)c1 | 0.00992 |
| O=C(NCc1cccnc1)c1cccc(NC(=O)c2ccco2)c1 | 0.316 |
| O=C(NCCCN1CCCCCC1)c1ccc(N2CCCC2=O)cc1 | -0.0426 |
| Cc1c(C(=O)Nc2cccc([N+](=O)[O-])c2)csc1-c1ccccc1 | 0.0674 |
| CC(C)(C)c1ccc(C(=O)N2CCC(C(=O)NCC3CCCO3)CC2)cc1 (stereo not given) | 0.584 |
| Cc1nn(CC(=O)NNC(=S)Nc2ccccc2)c(C)c1[N+](=O)[O-] | -1.25 |
| O=C(COc1ccc(S(=O)(=O)NC2CCCCC2)cc1Cl)NCC1CCCO1 (stereo not given) | -0.0074 |
| O=C(NNC(=S)NC1CCCCC1)c1sc2ccccc2c1Cl | -0.163 |
| CN(C)S(=O)(=O)N1CCN(C(=O)N2CCOCC2)CC1 | -0.179 |
| Cc1cc(C)nc(NC(=O)CSc2nc3ccccc3o2)n1 | -0.472 |
| COC(=O)c1sccc1Oc1ccc(F)cc1[N+](=O)[O-] | 0.137 |
| Cc1nc2ccccc2n1C1CC(=O)N(Cc2ccccc2)C1=O (stereo not given) | -0.114 |
| CCn1ncc(/C=C/C(=O)Nc2c(C)nn(CC)c2C)c1C | -0.306 |
| CS(=O)(=O)N(CC(=O)N/N=C/c1ccc(OCC(=O)N2CCOCC2)cc1)c1ccccc1Cl | 1.52 |
| CCC(=O)Nc1ccc(C(=O)CSc2nnc(-c3ccc(NS(C)(=O)=O)cc3)n2C)cc1OC | 0.001 |
| CCOC(=O)Cc1csc(NC(=O)CS(=O)(=O)Cc2ccccc2)n1 | 0.0101 |
| CC(C)[C@H](NC(=O)c1ccccc1)C(=O)OCC(=O)N1CCCc2ccccc21 | 0.0154 |
| O=C(CCc1nc(-c2ccccc2F)no1)NCCN1CCc2ccccc2C1 | -0.354 |
| Cc1nn2c3c(cnc2c1-c1ccccc1)C(=O)CCC3 | -0.149 |
